{"source": "paper PMC4336329", "about": "(PLoS ONE, 2015)", "note": "About 2,200 (0.71%) of roughly 310,000 compounds showed an effect of 50% or more. The effect is printed as a negative number. The list shows a part of the results."}
{"target": "human ether-à-go-go-related gene (hERG) potassium channel (human, UniProt Q12809)", "sequence (Q12809 whole entry, looked up)": "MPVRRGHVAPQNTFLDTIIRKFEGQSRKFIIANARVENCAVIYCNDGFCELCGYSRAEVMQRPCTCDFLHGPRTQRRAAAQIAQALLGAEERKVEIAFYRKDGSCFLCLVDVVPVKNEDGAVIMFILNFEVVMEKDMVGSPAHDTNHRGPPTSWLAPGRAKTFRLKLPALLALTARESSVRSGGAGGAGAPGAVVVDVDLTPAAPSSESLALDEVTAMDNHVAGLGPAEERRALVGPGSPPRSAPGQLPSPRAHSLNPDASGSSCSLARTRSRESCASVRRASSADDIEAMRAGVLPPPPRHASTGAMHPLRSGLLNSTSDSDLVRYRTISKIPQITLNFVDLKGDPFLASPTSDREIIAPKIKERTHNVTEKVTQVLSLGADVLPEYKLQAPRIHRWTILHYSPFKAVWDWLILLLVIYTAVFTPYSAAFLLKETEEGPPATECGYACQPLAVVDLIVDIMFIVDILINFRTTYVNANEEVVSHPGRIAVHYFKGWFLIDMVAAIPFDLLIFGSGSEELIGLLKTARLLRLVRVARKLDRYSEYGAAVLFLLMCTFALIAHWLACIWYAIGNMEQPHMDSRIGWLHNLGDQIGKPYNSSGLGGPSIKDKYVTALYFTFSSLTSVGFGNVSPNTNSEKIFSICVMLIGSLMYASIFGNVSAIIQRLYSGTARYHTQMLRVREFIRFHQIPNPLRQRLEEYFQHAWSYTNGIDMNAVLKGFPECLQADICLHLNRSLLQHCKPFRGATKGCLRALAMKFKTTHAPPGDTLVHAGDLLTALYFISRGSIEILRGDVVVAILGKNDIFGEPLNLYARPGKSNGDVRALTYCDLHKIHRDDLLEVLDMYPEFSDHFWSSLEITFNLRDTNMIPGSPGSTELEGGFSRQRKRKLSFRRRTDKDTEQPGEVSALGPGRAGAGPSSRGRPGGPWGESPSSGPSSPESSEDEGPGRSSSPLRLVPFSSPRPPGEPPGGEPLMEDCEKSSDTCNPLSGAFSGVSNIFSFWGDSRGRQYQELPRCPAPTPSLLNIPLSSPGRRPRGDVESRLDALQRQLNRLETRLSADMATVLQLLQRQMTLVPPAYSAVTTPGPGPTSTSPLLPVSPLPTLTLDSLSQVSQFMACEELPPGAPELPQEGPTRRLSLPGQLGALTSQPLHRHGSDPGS", "test": "primary screen, population patch clamp on CHO cells stably expressing hERG", "units": {"hERG current change (%, negative = inhibition) at 1uM": "%"}}
{"smiles": "COc1cc2c(C(=O)N3CCN(c4ccccc4C)CC3)c(C)oc2cc1Br", "hERG current change (%, negative = inhibition) at 1uM": 18.4}
{"smiles": "Cc1cc2oc(=O)cc(C)c2cc1NC(=O)CCl", "hERG current change (%, negative = inhibition) at 1uM": 7.4}
{"smiles": "CCOC(=O)CSc1nnc(CNC(=O)c2ccccc2OC)n1-c1ccc(OC)cc1", "hERG current change (%, negative = inhibition) at 1uM": -12.8}
{"smiles": "Cc1ccc(Cn2cc(/C=N/NC(=O)Cc3nnc(NC(=O)c4ccc(C)cc4)s3)c3ccccc32)cc1", "hERG current change (%, negative = inhibition) at 1uM": -3.42}
{"smiles": "CCOC(=O)N1CCN=C1SCc1ccc(Cl)c(Cl)c1", "hERG current change (%, negative = inhibition) at 1uM": 4.42}
{"smiles": "Cc1ccc(S(=O)(=O)N2CCCCC2)cc1NC(=O)CNCc1ccco1.O=C(O)C(=O)O", "hERG current change (%, negative = inhibition) at 1uM": 6.43}
{"smiles": "CCN(N)C(=S)Nc1ccc(F)cc1", "hERG current change (%, negative = inhibition) at 1uM": 17.7}
{"smiles": "O=C(Cn1cnc2ccccc2c1=O)Nc1ccccc1N1CCOCC1", "hERG current change (%, negative = inhibition) at 1uM": 7.26}
{"smiles": "Cc1cc(C=O)c(C)n1-c1ccc2c(c1)OCO2", "hERG current change (%, negative = inhibition) at 1uM": 11.3}
{"smiles": "O=C(N/N=C/c1ccc(Br)cc1)c1ccccc1-n1cccc1", "hERG current change (%, negative = inhibition) at 1uM": 20.2}
{"smiles": "CCOc1cc(C(=O)Nc2ccc(S(=O)(=O)NC3=NCCCCC3)cc2)cc(Br)c1OC", "hERG current change (%, negative = inhibition) at 1uM": 15.4}
{"smiles": "Cc1cc(Cl)c(OCCOCCN2CCC(C)CC2)c(Br)c1.O=C(O)C(=O)O", "hERG current change (%, negative = inhibition) at 1uM": -23.7}
{"smiles": "CC1(C)CC(=O)c2cc(C(=O)NCc3ccco3)c(=O)n(-c3ccc(Cl)cc3)c2C1", "hERG current change (%, negative = inhibition) at 1uM": 6.22}
{"smiles": "CC(=O)Nc1cccc(NC(C)=C(C#N)C#N)c1", "hERG current change (%, negative = inhibition) at 1uM": 12.9}
{"smiles": "Cl.O=C(CCN1CCCCCC1)Nc1cccc(Cl)c1", "hERG current change (%, negative = inhibition) at 1uM": 3.74}
{"smiles": "c1ccc2c(c1)nc(NCC1CCCO1)c1nnnn12", "note": "(centres unmarked)", "hERG current change (%, negative = inhibition) at 1uM": 6.02}
{"smiles": "Cc1cc(=O)oc2cc(OCC(=O)OCC(=O)Nc3c(C)n(C)n(-c4ccccc4)c3=O)ccc12", "hERG current change (%, negative = inhibition) at 1uM": -1.45}
{"smiles": "COc1ccc(CNS(=O)(=O)NCc2ccccc2)cc1OC", "hERG current change (%, negative = inhibition) at 1uM": 13.5}
{"smiles": "Cc1ccc(C(C)C)cc1OCC(=O)N1CCN(C(=O)c2ccco2)CC1", "hERG current change (%, negative = inhibition) at 1uM": 4.08}
{"smiles": "O=C(COc1cccnc1[N+](=O)[O-])Nc1ncc(Cl)cc1Cl", "hERG current change (%, negative = inhibition) at 1uM": 12.5}
{"smiles": "Cc1nn(C)c(C)c1CN(C)C(=O)c1cnn2c1NC(c1ccccc1)CC2C(F)(F)F", "note": "(centres unmarked)", "hERG current change (%, negative = inhibition) at 1uM": -3.12}
{"smiles": "CC(C)C(c1nnnn1CC1CCCO1)N1CCN(Cc2ccc3c(c2)OCO3)CC1.Cl", "note": "(centres unmarked)", "hERG current change (%, negative = inhibition) at 1uM": -1.36}
{"smiles": "COc1ccc(CCNc2c3ccccc3nc3ccccc23)cc1OC.Cl", "hERG current change (%, negative = inhibition) at 1uM": -59.8}
{"smiles": "C=CCC(C#Cc1ccccc1)N(C)C", "note": "(centres unmarked)", "hERG current change (%, negative = inhibition) at 1uM": -9.85}
{"smiles": "Cc1ccc(NC(=O)CN(C)C(=O)Cn2ncc(Cl)c(Cl)c2=O)cc1", "hERG current change (%, negative = inhibition) at 1uM": 13}
{"smiles": "CC1CCC(C(C)C)C(OC(=O)C[n+]2cc(-c3ccc(Cl)cc3)n3c2CCCCC3)C1.[Cl-]", "note": "(centres unmarked)", "hERG current change (%, negative = inhibition) at 1uM": -19.9}
{"smiles": "COc1ccc(C(=O)c2nc3c(n2O)CCCC3)cc1OC", "hERG current change (%, negative = inhibition) at 1uM": 14.6}
{"smiles": "Cc1cccc(NC(=O)c2ccc(COc3ccccc3)o2)n1", "hERG current change (%, negative = inhibition) at 1uM": 2.11}
{"smiles": "Cc1ccc(-n2cc(CN3CCN(c4ccccn4)CC3)c(-c3ccc(F)cc3)n2)cc1", "hERG current change (%, negative = inhibition) at 1uM": 8.06}
{"smiles": "CC(CN1CCCCC1)OC(=O)COc1ccc(Br)cc1", "note": "(centres unmarked)", "hERG current change (%, negative = inhibition) at 1uM": 12.4}
{"smiles": "COCCC(=O)Nc1ccc2c(c1)CN(C(=O)c1ccc(CSC)o1)CC2", "hERG current change (%, negative = inhibition) at 1uM": 12.3}
{"smiles": "O=C(O)CC(NCc1ccco1)C(=O)OCC1CCCO1", "note": "(centres unmarked)", "hERG current change (%, negative = inhibition) at 1uM": 4.95}
{"smiles": "CCOC(=O)N1CCN(C(=O)Nc2ccc3nc(C)c(C)nc3c2)CC1", "hERG current change (%, negative = inhibition) at 1uM": 4.44}
{"smiles": "CCc1ccc(OCC(=O)Nc2nnc(-c3ccco3)s2)cc1", "hERG current change (%, negative = inhibition) at 1uM": 19.4}
{"smiles": "COc1ccc(C2N=C(N)N=C(N)N2c2ccccc2OC)cc1OC.Cl", "note": "(centres unmarked)", "hERG current change (%, negative = inhibition) at 1uM": 7.87}
{"smiles": "COc1ccccc1OCC(O)CN1CCOCC1", "note": "(centres unmarked)", "hERG current change (%, negative = inhibition) at 1uM": 14.9}
{"smiles": "Cc1ccc(OCc2nnc(SCC(=O)c3ccccc3)n2Cc2ccco2)cc1", "hERG current change (%, negative = inhibition) at 1uM": -15.6}
{"smiles": "CN(C)CCCNCC(=O)NN(c1ccccc1)c1ccccc1.O=C(O)C(=O)O", "hERG current change (%, negative = inhibition) at 1uM": 6.83}
{"smiles": "O=C1C2C3C=CC(C4CC34)C2C(=O)N1/N=C/c1ccc(-c2ccc([N+](=O)[O-])cc2)o1", "note": "(centres unmarked)", "hERG current change (%, negative = inhibition) at 1uM": 15.5}
{"smiles": "Cc1ccc(C23CC4CC(CC(C(=O)NCC(=O)O)(C4)C2)C3)cc1", "hERG current change (%, negative = inhibition) at 1uM": 14}
{"smiles": "O=C(CSCc1c(Cl)cccc1Cl)NN1C(=O)c2ccccc2C1=O", "hERG current change (%, negative = inhibition) at 1uM": -3.03}
{"smiles": "O=C(c1ccc(Cl)cc1[N+](=O)[O-])N1CCOCC1", "hERG current change (%, negative = inhibition) at 1uM": 11}
{"smiles": "Cc1ccccc1NC(=O)CSc1nnc2ccc(-c3cccnc3)nn12", "hERG current change (%, negative = inhibition) at 1uM": 6.48}
{"smiles": "COc1cccc2[nH]c(C(=O)NCc3ccccc3)cc12.Cl", "hERG current change (%, negative = inhibition) at 1uM": 10.2}
